# Among all 360,000 compounds or so, about 17,000 (4.7%) were called active. Inconclusive means that the source gave no clear call. Such entries were picked first, then a sample of the others. Rule as the data show it: active = activity change below about -50%; inconclusive = mostly about -30% to -49%; inactive = weaker than that.
# Experiment: qHTS for Inhibitors of Inflammasome Signaling: IL-1-beta AlphaLISA Primary Screen
# Conditions: THP-1 LPS/ATP IL-1B secretion, 16 h; at 57.5 µM, hits give low values
# Procedure, shortened: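 THP-1 cells pretreated 1 hr with compounds (up to 57.5 uM final), then stimulated with LPS (250 ng/mL final) plus ATP (1.25 mM final); secreted IL-1B measured by AlphaLISA after 16 hr, decreased signal indicating inhibition.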
# % is scaled to controls: 0 for no effect and ±100 for the full control effect.
row,SMILES,activity change
1,COc1ccc(/C=C/c2nc3ccccc3n2Cc2ccc(OC)c(OC)c2)cc1,active: -53.6%
2,Cc1ccccc1-n1c(Cc2cccs2)n[nH]c1=S,inactive: -15.4%
3,Cc1cc(C)cc(N(C(=O)c2snc(C(N)=O)c2N)C(C(=O)NCC2CCCO2)c2cccs2)c1 (stereo not given),inconclusive: -36.4%
4,COc1ccc(OC)c(C2C(C(N)=O)=C(C)Nc3nc(-c4cccc(Cl)c4)nn32)c1 (stereo not given),inconclusive: -33.9%
5,CCOC(=O)Nc1ccc2c(CNC(C)c3ccccc3OC)cc(=O)oc2c1 (stereo not given),inactive: -6.79%
6,Cc1ccc(N2CCN(C(=O)C(=O)c3ccc4c(c3)OCO4)CC2)cc1,inactive: -3.74%
7,CCOC(=O)C1(Cc2cccc(OC)c2)CCN(Cc2ccon2)CC1,inactive: 8.42%
8,O=C(Nc1ccc(N2CCCCCC2)cc1)c1ccccc1Cl,inconclusive: -31.1%
9,O=C(CSc1nc2ccccc2c(=O)n1Cc1ccco1)N1CCCCCC1,inconclusive: -33.2%
10,Cc1ccccc1-n1c(Cn2c(=O)sc3ccccc32)nnc1SCC(=O)NCC1CCCO1 (stereo not given),inconclusive: -34.1%
11,CCc1ccc(N(C(=O)c2csnn2)C(C(=O)NC(C)(C)CC)c2cccnc2)cc1 (stereo not given),inactive: 11.3%
12,COc1ccc(S(=O)(=O)NC2CCCC2)cc1C(N)=O,inactive: 18.5%
13,Cc1cc(=O)oc2c3c(cc(OCC(=O)NCc4ccccc4)c12)OC(C)(C)CC3,inconclusive: -35.7%
14,OC(COc1ccc(OCC(O)CN2CCCCC2)cc1)CN1CCCCC1 (stereo not given),inconclusive: -34%
15,O=C(Nc1ccc(N2CCN(C(=O)c3cccs3)CC2)c(Cl)c1)c1ccco1,inconclusive: -48.4%
16,CCn1cc(C(=O)N(C)c2cc(C)ccc2OC)c2cc(OC)c(OC)cc2c1=O,inconclusive: -32.3%
17,Cc1[nH]ccc(=O)c1Cc1c(Cl)cccc1Cl,inactive: 24.5%
18,CCc1nc2sc3c(c2c(=O)n1N)CC(C)(C)OC3,inconclusive: -45.9%
19,Cc1c2cnccc2c(C)c2c1oc1ccccc12,active: -72.9%
20,c1ccc2c(OCCCN3CCCCCC3)cccc2c1,inconclusive: -34.1%
21,N#Cc1ccc(C=NN2CCCCCC2)cc1,inconclusive: -40.8%
22,COc1ccc(CC(=O)OCC(=O)Nc2ccc(Cl)cc2C)cc1,inactive: -11.5%
23,COc1ccc(/C=C/c2onc(C)c2S(=O)(=O)N2CCC(C(=O)N3CCC(C)CC3)CC2)cc1,inconclusive: -33.2%
24,Cc1ccc(N2CC(C(=O)Nc3cc(S(=O)(=O)N4CCCCC4)ccc3C)CC2=O)cc1 (stereo not given),inactive: -20.2%
25,O=C(Nc1ccc(S(=O)(=O)N2CCCCC2)cc1)c1cccnc1Cl,inactive: -12.2%
26,Cc1nc(CN2CCN(C(=O)c3ccc(C(C)(C)C)cc3)CC2)cs1,inconclusive: -32.7%
27,Cc1cc(Cl)ccc1NC(=O)CSc1nnc(Cc2cccs2)n1Cc1ccco1,inconclusive: -44.1%
28,O=C(Nc1cccn(Cc2c(Cl)cccc2Cl)c1=O)c1ccccc1Cl,inconclusive: -39.4%

row,SMILES,activity change
1,Cc1cc(NC(=O)CSc2ccc3nnc(CCNS(=O)(=O)c4ccccc4)n3n2)no1,inactive: 7.89%
2,O=C(Nc1ccc2c(c1)OCCO2)C(C1CC1)N1CCN(c2ccc(F)cc2)CC1 (stereo not given),inactive: -7.4%
3,CN(C)S(=O)(=O)c1cccc(COc2ccccc2C(=O)Nc2ccccc2)c1,inconclusive: -34.9%
4,N#C/C(=C\c1ccc(Cl)cc1)C(=O)NC1CC1,inconclusive: -48.2%
5,CC(=O)Nc1ccc(-c2csc(NC(=O)Cc3cccc(F)c3)n2)cc1,inconclusive: -46.3%
6,O=C(Nc1cccc(Oc2ccccc2)c1)C1Cc2c(-c3ccccc3)ccnc2O1 (stereo not given),inconclusive: -34.5%
7,O=C(Nc1ccnn1C1CCN(Cc2ccc(OC(F)F)cc2)CC1)C1CCCC1,inconclusive: -43.7%
8,COc1ccc(CCn2c(=N)c(C(=O)NCCN3CCOCC3)cc3c(=O)n4cccc(C)c4nc32)cc1OC,inconclusive: -34.2%
9,C(=N\c1ncnc2sccc12)/NOCc1ccccc1,inconclusive: -31.4%
10,CCOc1ccc(NC(=S)NNC(=O)c2ccc(Br)cc2)cc1,active: -64.4%
11,O=C(CNC(=O)c1ccccc1F)N/N=C/c1cc(Br)ccc1OCc1ccccc1,inconclusive: -44.8%
12,Clc1ccc(-c2c[n+]3c(n2-c2ccccc2)SCC3)cc1,inconclusive: -41.5%
13,CCn1c(CNC(=O)COc2ccc(C(C)C)cc2)nnc1SCC(=O)Nc1ccc(F)cc1,inconclusive: -42%
14,COc1cc(C(=O)Nc2ccccc2N2CCOCC2)ccc1OCc1c(C)noc1C,inconclusive: -32.3%
15,O=C(c1ccc2c(=O)n3c(nc2c1)CCCCC3)N1CCN(c2ccc(F)cc2)CC1,inconclusive: -35.8%
16,CCn1cc(C(=O)NCc2ccc(Cl)cc2)c(=O)c2cc(S(=O)(=O)N(C)C)ccc21,active: -68.6%
17,COc1ccc(-c2noc3c2-c2nc(-c4cccc(C)c4)sc2CC3)cc1,inactive: 0.466%
18,CCOC(=O)c1sc(Nc2ccccc2Cl)nc1C,inconclusive: -30%
19,N#CC1=C(S)N(c2ccccc2)C(c2ccc(-c3ccccc3Cl)o2)NC1=O (stereo not given),inconclusive: -41.2%
20,Nc1c(Cl)cc2c(c1Oc1ccccc1)C(=O)c1ccccc1C2=O,active: -70.8%
21,O=C(Nc1ccncc1)c1cccc(S(=O)(=O)N2CCN(c3ccc(F)cc3)CC2)c1,inconclusive: -39.4%
22,CCCNC(=O)CSc1nc(COc2ccccc2)nc2ccccc12,active: -66.6%
23,COc1ccc(NC(=O)C2CCN(c3ncnc4c3nc3n4CCCCC3)CC2)cc1Cl,inconclusive: -40.5%
24,CCN1CCN(S(=O)(=O)c2ccc(Cl)c(C(=O)NCCOc3ccc(C)cc3)c2)CC1,inconclusive: -39.9%
25,CC1(C)CC(=O)C=C(c2ccc(Oc3ccccc3)cc2)C1,inconclusive: -37.6%
26,CC(=O)c1c(C)[nH]c(C(=O)N2CCN(c3ccc(F)cc3)CC2)c1C,inactive: 16.9%
27,NS(=O)(=O)c1ccc(N2N=C(c3ccccc3)CC2c2ccc(F)cc2)cc1 (stereo not given),active: -61.2%

# Reference: PubChem BioAssay AID743279 (National Center for Advancing Translational Sciences (NCATS), 2014)
